This is one part of the list. Repeats are few or missing, and single values can be far off.
System: LOXIMVI
Assay: cell count relative to DMSO control; melanoma cells; higher = more viable cells
Conditions: library dose: standard library concentration; 72 h
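Note: cells treated in 1,536-well plates, then fixed and DAPI-stained, with nuclei counted from automated high-throughput microscope images.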

| Structure (SMILES) | cell count [%] |
| --- | --- |
| NC1(c2ccc(-c3nc4ccn5c(=O)[nH]nc5c4cc3-c3ccccc3)cc2)CCC1 + Nc1cccc2c1CN(C1CCC(=O)NC1=O)C2=O [lenalidomide] (first compound 2 µM, partner dose 5 µM) | 93.7 |
| CS(=O)(=O)c1ccc(C(=O)Nc2ccc(Cl)c(-c3ccccn3)c2)c(Cl)c1 [vismodegib] + COc1ccc(-c2ccc3c(N4CCOCC4)nc(N4C[C@@H](C)O[C@@H](C)C4)nc3n2)cc1CO [KU0063794] (first compound 5 µM, partner dose 0.1 µM) | 92.2 |
| CS(=O)(=O)c1ccc(C(=O)Nc2ccc(Cl)c(-c3ccccn3)c2)c(Cl)c1 [vismodegib] + C=CCn1c(=O)c2cnc(Nc3ccc(N4CCN(C)CC4)cc3)nc2n1-c1cccc(C(C)(C)O)n1 [MK1775] (first compound 5 µM, partner dose 0.1 µM) | 85.5 |
| NC1(c2ccc(-c3nc4ccn5c(=O)[nH]nc5c4cc3-c3ccccc3)cc2)CCC1 + Cn1cc(/C=C2\C(=O)Nc3cccnc32)c2ccccc21 [GW441756] (first compound 2 µM, partner dose 2 µM) | 83.5 |
| C=C(c1ccc(C(=O)O)cc1)c1cc2c(cc1C)C(C)(C)CCC2(C)C [Bexarotene] + O=C1NC(=O)/C(=C/c2ccc(-c3ccc(F)cc3O)o2)S1 [AS252424] (first compound 10 µM, partner dose 5 µM) | 127 |
| CN(c1ncccc1CNc1nc(Nc2ccc3c(c2)CC(=O)N3)ncc1C(F)(F)F)S(C)(=O)=O + Cn1c(Nc2ccc(C(F)(F)F)cc2)nc2cc(Oc3ccnc(-c4ncc(C(F)(F)F)[nH]4)c3)ccc21 [CHIR265] (first compound 0.4 µM, partner dose 0.4 µM) | 64.6 |
| CS(=O)(=O)c1ccc(C(=O)Nc2ccc(Cl)c(-c3ccccn3)c2)c(Cl)c1 [vismodegib] + Cn1nnc2c(C(N)=O)ncn2c1=O [temozolomide] (first compound 5 µM, partner dose 10 µM) | 79.9 |
| CCCS(=O)(=O)Nc1ccc(F)c(C(=O)c2c[nH]c3ncc(Cl)cc23)c1F + Cn1nnc2c(C(N)=O)ncn2c1=O [temozolomide] (first compound 0.4 µM, partner dose 10 µM) | 76 |
| C=C(c1ccc(C(=O)O)cc1)c1cc2c(cc1C)C(C)(C)CCC2(C)C [Bexarotene] + C#Cc1cccc(Nc2ncnc3cc(OCCOC)c(OCCOC)cc23)c1 [erlotinib] (first compound 10 µM, partner dose 4 µM) | 130 |
| CS(=O)(=O)c1ccc(C(=O)Nc2ccc(Cl)c(-c3ccccn3)c2)c(Cl)c1 [vismodegib] + CCCCCCCCCCCC1=C(O)C(=O)C=C(O)C1=O [Embelin] (first compound 5 µM, partner dose 6 µM) | 108 |
| CCCS(=O)(=O)Nc1ccc(F)c(C(=O)c2c[nH]c3ncc(Cl)cc23)c1F + COc1ccc(COc2ccc(Cc3cnc(N)nc3N)cc2OC)cc1 [GW2580] (first compound 0.4 µM, partner dose 5 µM) | 79.9 |
| CN(c1ncccc1CNc1nc(Nc2ccc3c(c2)CC(=O)N3)ncc1C(F)(F)F)S(C)(=O)=O + CN(NC(=O)CC(=O)NN(C)C(=S)c1ccccc1)C(=S)c1ccccc1 [STA4783] (first compound 0.4 µM, partner dose 0.03 µM) | 65.1 |
| C=C(c1ccc(C(=O)O)cc1)c1cc2c(cc1C)C(C)(C)CCC2(C)C [Bexarotene] + Cc1cc(N2CCOCC2)cc2[nH]c(-c3c(NC[C@@H](O)c4cccc(Cl)c4)cc[nH]c3=O)nc12 [BMS536924] (first compound 10 µM, partner dose 1 µM) | 88.9 |
| CN(c1ncccc1CNc1nc(Nc2ccc3c(c2)CC(=O)N3)ncc1C(F)(F)F)S(C)(=O)=O + C#Cc1cccc(Nc2ncnc3cc(OCCOC)c(OCCOC)cc23)c1 [erlotinib] (first compound 0.4 µM, partner dose 4 µM) | 88.9 |
| C=C(c1ccc(C(=O)O)cc1)c1cc2c(cc1C)C(C)(C)CCC2(C)C [Bexarotene] + CN(NC(=O)CC(=O)NN(C)C(=S)c1ccccc1)C(=S)c1ccccc1 [STA4783] (first compound 10 µM, partner dose 0.03 µM) | 63.9 |
| NC1(c2ccc(-c3nc4ccn5c(=O)[nH]nc5c4cc3-c3ccccc3)cc2)CCC1 + O=C(O)C(=O)Nc1sc2c(c1C(=O)O)CCNC2 [TCS401] (first compound 2 µM, partner dose 8.33333 µM) | 108 |
| NC1(c2ccc(-c3nc4ccn5c(=O)[nH]nc5c4cc3-c3ccccc3)cc2)CCC1 + O=C(Nc1cccc(Cl)c1)Nc1ncc(CCNc2ncnc3ccsc23)s1 [SNS314] (first compound 2 µM, partner dose 0.004 µM) | 92.7 |

| Structure (SMILES) | cell count [%] |
| --- | --- |
| CCCS(=O)(=O)Nc1ccc(F)c(C(=O)c2c[nH]c3ncc(Cl)cc23)c1F + CC(=O)c1c(C)c2cnc(Nc3ccc(N4CCNCC4)cn3)nc2n(C2CCCC2)c1=O [palbociclib] (first compound 0.4 µM, partner dose 0.2 µM) | 74.1 |
| CS(=O)(=O)c1ccc(C(=O)Nc2ccc(Cl)c(-c3ccccn3)c2)c(Cl)c1 [vismodegib] + Cc1cc(N2CCOCC2)cc2[nH]c(-c3c(NC[C@@H](O)c4cccc(Cl)c4)cc[nH]c3=O)nc12 [BMS536924] (first compound 5 µM, partner dose 1 µM) | 76.5 |
| CCCS(=O)(=O)Nc1ccc(F)c(C(=O)c2c[nH]c3ncc(Cl)cc23)c1F + CCCCCCCCCCCC1=C(O)C(=O)C=C(O)C1=O [Embelin] (first compound 0.4 µM, partner dose 6 µM) | 92.1 |
| NC1(c2ccc(-c3nc4ccn5c(=O)[nH]nc5c4cc3-c3ccccc3)cc2)CCC1 + CC(C)(C)c1cnc(CSc2cnc(NC(=O)C3CCNCC3)s2)o1 [SNS-032] (first compound 2 µM, partner dose 0.05 µM) | 64 |
| C=C(c1ccc(C(=O)O)cc1)c1cc2c(cc1C)C(C)(C)CCC2(C)C [Bexarotene] + CC(=O)c1c(C)c2cnc(Nc3ccc(N4CCNCC4)cn3)nc2n(C2CCCC2)c1=O [palbociclib] (first compound 10 µM, partner dose 0.2 µM) | 50.3 |
| CN(c1ncccc1CNc1nc(Nc2ccc3c(c2)CC(=O)N3)ncc1C(F)(F)F)S(C)(=O)=O + O=C(Nc1ccccc1)c1cc([N+](=O)[O-])ccc1Cl [GW9662] (first compound 0.4 µM, partner dose 10 µM) | 72.5 |
| CCCS(=O)(=O)Nc1ccc(F)c(C(=O)c2c[nH]c3ncc(Cl)cc23)c1F + Cc1nc(Nc2ncc(C(=O)Nc3c(C)cccc3Cl)s2)cc(N2CCN(CCO)CC2)n1 [dasatanib] (first compound 0.4 µM, partner dose 0.02 µM) | 25.6 |
| CCCS(=O)(=O)Nc1ccc(F)c(C(=O)c2c[nH]c3ncc(Cl)cc23)c1F + C#Cc1cccc(Nc2ncnc3cc(OCCOC)c(OCCOC)cc23)c1 [erlotinib] (first compound 0.4 µM, partner dose 4 µM) | 93.3 |
| C=C(c1ccc(C(=O)O)cc1)c1cc2c(cc1C)C(C)(C)CCC2(C)C [Bexarotene] + Nc1nc(F)nc2c1ncn2[C@@H]1O[C@H](CO)[C@@H](O)[C@@H]1O [fludarabine] (first compound 10 µM, partner dose 1 µM) | 131 |
| CCCS(=O)(=O)Nc1ccc(F)c(C(=O)c2c[nH]c3ncc(Cl)cc23)c1F + O=C1NC(=O)/C(=C/c2ccc(-c3ccc(F)cc3O)o2)S1 [AS252424] (first compound 0.4 µM, partner dose 5 µM) | 87.6 |
| NC1(c2ccc(-c3nc4ccn5c(=O)[nH]nc5c4cc3-c3ccccc3)cc2)CCC1 + Oc1nc(-c2ccc(C(F)(F)F)cc2)nc2c1CSCC2 [XAV939] (first compound 2 µM, partner dose 10 µM) | 105 |
| CS(=O)(=O)c1ccc(C(=O)Nc2ccc(Cl)c(-c3ccccn3)c2)c(Cl)c1 [vismodegib] + O=C(O)C(=O)Nc1sc2c(c1C(=O)O)CCNC2 [TCS401] (first compound 5 µM, partner dose 8.33333 µM) | 96.4 |
| CS(=O)(=O)c1ccc(C(=O)Nc2ccc(Cl)c(-c3ccccn3)c2)c(Cl)c1 [vismodegib] + Cn1c(Nc2ccc(C(F)(F)F)cc2)nc2cc(Oc3ccnc(-c4ncc(C(F)(F)F)[nH]4)c3)ccc21 [CHIR265] (first compound 5 µM, partner dose 0.4 µM) | 83 |
| CN(c1ncccc1CNc1nc(Nc2ccc3c(c2)CC(=O)N3)ncc1C(F)(F)F)S(C)(=O)=O + COc1cc2ncnc(Nc3ccc(Oc4ccccc4)cc3)c2cc1OC [SrcI1] (first compound 0.4 µM, partner dose 10 µM) | 59 |
| NC1(c2ccc(-c3nc4ccn5c(=O)[nH]nc5c4cc3-c3ccccc3)cc2)CCC1 + Oc1cc(-c2nc(-c3ccccc3)[nH]c2-c2ccncc2)ccc1Cl [L779450] (first compound 2 µM, partner dose 1 µM) | 64.6 |
| CS(=O)(=O)c1ccc(C(=O)Nc2ccc(Cl)c(-c3ccccn3)c2)c(Cl)c1 [vismodegib] + C[C@]1(c2nc3c(C(N)=O)cccc3[nH]2)CCCN1 [Veliparib] (first compound 5 µM, partner dose 7 µM) | 107 |

From the supplement of paper PMC4604168 (melanoma cell lines)
